# T1: membrane-type IL-6R on cells (U266B1, TF-1, Hep3B) (UniProt P08887 20-468, limits assumed)
# T1 sequence (looked up): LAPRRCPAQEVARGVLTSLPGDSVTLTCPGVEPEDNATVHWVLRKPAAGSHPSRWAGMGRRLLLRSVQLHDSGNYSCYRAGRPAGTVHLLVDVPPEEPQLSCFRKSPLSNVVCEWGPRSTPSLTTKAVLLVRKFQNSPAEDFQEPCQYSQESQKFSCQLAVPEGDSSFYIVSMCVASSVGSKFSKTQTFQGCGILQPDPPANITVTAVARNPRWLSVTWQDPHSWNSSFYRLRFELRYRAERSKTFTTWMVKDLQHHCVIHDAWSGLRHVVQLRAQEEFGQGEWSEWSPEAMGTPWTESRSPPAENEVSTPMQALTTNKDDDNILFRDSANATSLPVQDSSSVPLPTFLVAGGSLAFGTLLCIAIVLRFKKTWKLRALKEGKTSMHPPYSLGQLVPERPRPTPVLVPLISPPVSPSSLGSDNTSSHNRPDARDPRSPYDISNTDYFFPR
# T2: hIL-6R.His (human interleukin-6 receptor with His tag) (human, UniProt P08887 20-365)
# T2 construct: Soluble recombinant antigen expressed in 293E cells; The entry includes the His tag
# T2 sequence: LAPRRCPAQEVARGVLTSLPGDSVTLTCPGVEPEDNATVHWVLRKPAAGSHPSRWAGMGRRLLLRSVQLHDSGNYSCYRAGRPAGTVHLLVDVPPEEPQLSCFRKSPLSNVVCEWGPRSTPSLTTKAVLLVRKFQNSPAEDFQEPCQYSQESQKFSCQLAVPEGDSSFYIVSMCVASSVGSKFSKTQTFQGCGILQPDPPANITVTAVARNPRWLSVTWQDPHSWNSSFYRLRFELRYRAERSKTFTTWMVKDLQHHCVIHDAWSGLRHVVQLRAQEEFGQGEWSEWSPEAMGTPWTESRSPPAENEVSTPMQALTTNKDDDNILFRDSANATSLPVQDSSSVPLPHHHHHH
# T3: hIL-6R.BP15 (human interleukin-6 receptor with BP15 tag, biotinylated) (human, UniProt P08887 20-365, site-directed biotinylation on the BP15 tag)
# T3 sequence: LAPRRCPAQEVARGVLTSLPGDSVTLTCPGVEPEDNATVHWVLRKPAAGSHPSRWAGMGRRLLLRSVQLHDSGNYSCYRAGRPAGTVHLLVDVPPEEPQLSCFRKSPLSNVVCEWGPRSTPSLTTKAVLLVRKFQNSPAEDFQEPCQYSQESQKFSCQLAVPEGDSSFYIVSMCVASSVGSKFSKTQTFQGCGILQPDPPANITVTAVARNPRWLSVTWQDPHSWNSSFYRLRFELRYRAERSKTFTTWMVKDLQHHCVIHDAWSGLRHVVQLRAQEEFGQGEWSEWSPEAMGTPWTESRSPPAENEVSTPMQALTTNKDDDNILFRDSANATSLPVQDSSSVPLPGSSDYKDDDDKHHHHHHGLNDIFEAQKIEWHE
# Tests used:
# [1] = biological target: T1, membrane-type IL-6R on cells (U266B1, …); assay: cell-based or functional assay
# [2] = biological target: T1, membrane-type IL-6R on cells (U266B1, …); assay: cell-based or functional assay; remark: listed apart in the source
# [3] = biological target: T2, hIL-6R.His (human interleukin-6 …); assay: SPR (Biacore T200), antibody captured by anti-human capture antibody, hIL-6R.his as analyte, 1:1 Langmuir
# Description: Human anti-capture antibodies were covalently coupled onto Biosensor chip CM5 (Cat.# BR-1000-12, GE) in a Biacore instrument (Biacore T200, GE) with Human Anti-Capture Kit (Cat. #BR-1008-39, GE) according to manufacturer's protocol, thereby certain amounts of antibodies to be tested were captured. Antigens (hIL-6R.his and cIL-6R.FH) at a series of concentration gradients were then flowed through the surface of the chip . The reaction signals were detected in real time using Biacore instrument (Biacore T200, GE) to obtain binding and dissociation curves.
# After each cycle of dissociation, the biochips were washed and regenerated with the regeneration solution provided in the Human Anti-Capture Kit. The amino coupling kit used in the experiment was purchased from GE (Cat. #BR-1000-50, GE) and the buffer was HBS-EP+10×buffer solution (Cat.#BR-1006-69, GE), diluted to 1×(pH 7.4) with D.I. water.
# The experimental data were fitted with BlAevaluation version 4.1 and GE software (1:1) Langmuir model to obtain the affinity values.
# [4] = biological target: T3, hIL-6R.BP15 (human interleukin-6 …); assay: blocking ELISA: coated gp130, IL-6.his and IL-6R.BP15 (0.06 ug/ml) with serially diluted antibody, HRP-streptavidin, OD450; blocked: binding of the IL-6/IL-6R complex to gp130; unit from the abscissa
# Method: The complex of IL-6 and IL-6R can bind to GP130. The assay will evaluate if the selected antibodies were able to block the formation of IL-6/IL-6R/gp130 complex by binding to IL-6R. The plates were coated with 1 μg/ml gp130 (diluted in PBS) at 4° C. overnight. The coating solution was discarded, and plates were blocked with 5% skim milk in PBS at 37° C. for 2-3h. After blocking, the plates were washed 3 times with washing buffer PBST (0.1% Tween-20 in PBS).
# IL-6.his and IL-6R.BP15 were diluted with 1% BSA in PBS to a concentration of 0.06 μg/ml. Starting at 50 ug/ml, IL-6R antibodies were 1:3 serially diluted in dilution buffer and Both testing antibody samples and IL-6/IL-6R complex were added to the plate followed by lh incubation at 37° C. After that, the plates were washed for 3 times with washing buffer PBST (0.1% Tween-20 in PBS).
# 1:2000 diluted Secondary antibody HRP streptavidin (Jackson, 016-030-084) was added to the plate followed by 1 h incubation at 37° C.After incubation and wash,. TMB was used for development. OD₄₅₀ values were read.
binder,measurement,setting,value
"1764-mu3 VHH-hFc fusion protein (Fc fusion, also called variant 3 (A14P, K86R, Q116L)) EVQLVESGGGLVQPGGSLRLSCEASGNIFKINVMGWYRQAPGKQREWVAAIISGGSTNYADSVKGRFTISRDNAKNTVYLQMNSLRPEDTAVYYCNAILTYNDYDLGSDYWGQGTLVTVSS[here human IgG1 Fc with changes without letters]",Relative expression level of hepcidin mRNA (fold) in Hep3B cells with 5 nM antibody and 10 ng/ml IL-6 (blank 1; IL-6 only 2.783),[1],1.15 fold
same,"EC50, blocking effect on IL-6-stimulated TF-1 proliferation",[2],0.337 nM
same,Kd,[3],0.127 nM
same,koff,[3],0.000154 s⁻¹
same,kon,[3],1.21e+06 M⁻¹ s⁻¹
same,IC50,[4],0.0366 µg/mL

# Reference: patent US20200369774A1 (JIANGSU HENGRUI MEDICINE, published 2020)
